Data reported in paper PMC11995724, “Antibiotic target discovery by integrated phenotypic and activity-based profiling of electrophilic fragments” (Cell chemical biology, 2025).
Screen size: about 3,200 compounds; about 110 (3.4%) showed an effect of 50% or more. This is one part of the list.

Tested on: T1, V. cholerae SAD30
T1 construct: SAD30
Parameters: species or system S. aureus MSSA476 (TSB) or V. cholerae SAD30 (LB); 384-well bacterial growth screen at 25 uM, OD600 relative to DMSO control
Details: relative growth, OD600, LB; 25 µM; inhibitor

SMILES | % of control remaining
CC(Cl)C(=O)N1CCOCC(n2cccn2)C1 (stereo not shown) [6-H22, 2-chloro-1-[6-(1H-pyrazol-1-yl)-1,4-oxazepan-4-yl]propan-1-one] | 103.896%
C=CC(=O)N(C)Cc1cn(C2CC2)cn1 [2-J13, N-[(1-cyclopropyl-1H-imidazol-4-yl)methyl]-N-methylprop-2-enamide] | 90.8135%
C=CC(=O)Nc1ccc(C(=O)N2CCCCC2c2noc(C)n2)cc1 (stereo not shown) [2-C20, N-{4-[2-(5-methyl-1,2,4-oxadiazol-3-yl)piperidine-1-carbonyl]phenyl}prop-2-enamide] | 98.2245%
CC(C)OC(=O)c1ccc(NC(=O)C(C)Cl)cc1 (stereo not shown) [4-K08, propan-2-yl 4-(2-chloropropanamido)benzoate] | 78.499%
C=CC(=O)NCC1CS(=O)(=O)c2ccccc21 (stereo not shown) [3-J15, N-[(1,1-dioxo-2,3-dihydro-1lambda6-benzothiophen-3-yl)methyl]prop-2-enamide] | 89.9724%
CCN(c1ccc(C(=O)CCl)cc1)S(C)(=O)=O [10-F04, N-[4-(2-chloroacetyl)phenyl]-N-ethylmethanesulfonamide] | 100.994%
Cc1cc(C(=O)O)ccc1N1C(=O)C=CC1=O [10-G22, 4-(2,5-dioxo-2,5-dihydro-1H-pyrrol-1-yl)-3-methylbenzoic acid] | 102.864%
CC(=O)Nc1ccsc1C=C(C#N)C(=O)Nc1ccc(F)cc1 [9-F14, 2-cyano-3-(3-acetamidothiophen-2-yl)-N-(4-fluorophenyl)prop-2-enamide] | 86.9477%
Cc1ccc(C)c(NC(=O)C(C#N)=Cc2cccn2C)c1 [8-M07, 2-cyano-N-(2,5-dimethylphenyl)-3-(1-methyl-1H-pyrrol-2-yl)prop-2-enamide] | 71.0401%
C=CC(=O)N1CCC(C(=O)NCc2ccc(S(N)(=O)=O)cc2)CC1 [3-N10, 1-(prop-2-enoyl)-N-[(4-sulfamoylphenyl)methyl]piperidine-4-carboxamide] | 97.9121%
CC(Cl)C(=O)NCCc1ccc[nH]1 (stereo not shown) [7-L09, 2-chloro-N-[2-(1H-pyrrol-2-yl)ethyl]propanamide] | 83.2645%
CC(Cl)C(=O)NCCN1CCn2nccc2C1 (stereo not shown) [5-D13, 2-chloro-N-(2-{4H,5H,6H,7H-pyrazolo[1,5-a]pyrazin-5-yl}ethyl)propanamide] | 95.6604%
Cc1ccccc1NC(=O)C(C#N)=Cc1c(Cl)nc2ccccn12 [9-I22, 3-{2-chloroimidazo[1,2-a]pyridin-3-yl}-2-cyano-N-(2-methylphenyl)prop-2-enamide] | 95.5133%
